# Laboratory results published in PubChem BioAssay AID1347073 (National Center for Advancing Translational Sciences (NCATS), 2019).
# In all, about 45,000 compounds went through this assay and about 200 (0.44%) were called active. Roughly 7% stayed inconclusive and do not appear here. Calls follow the shape of the dose curve; as a rule, active = well fitted activation curve with a large enough effect; inconclusive = small, poorly fitted or top-dose-only effect; inactive = no such curve, though single readings can be large or run the other way. Some of the results follow.
# Test: qHTS of TDP-43 Inhibitors: NCGC Sytravon Library Screen; also: 0% is about no effect; nearly all actives have a fitted effect of over 55% in size
# Conditions: yeast TDP-43 toxicity rescue, BacTiter-Glo growth, 24 h; series mostly up to 46.1 µM; growth rescue (activation): at the top concentration
# How it was run: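 TDP-43-expressing yeast, pregrown in raffinose, seeded at OD600 0.02 in galactose medium with compound for 24 hr at 30 deg C. Growth read by BacTiter-Glo luminescence, so rescue of toxicity appears as activation.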
row,SMILES,growth rescue (activation)
1,CCCCc1cc(=O)oc2c(CN(CC)CC)c(O)c(Cl)cc12,inactive: 15.9%
2,N#CCSc1nc2ccccc2c(=O)n1CCCC(=O)NCC1CCCO1 (stereo unspecified),inactive: 10.5%
3,COc1ccc(-c2nc(C(=O)O)cs2)cc1OC,inactive: 4.64%
4,CN(CC(=O)NCc1ccc2c(c1)OCO2)S(=O)(=O)c1ccc(F)cc1,inactive: -1.34%
5,O=C(CSc1ncn[nH]1)N1N=C2/C(=C\c3ccco3)CCCC2C1c1ccco1 (stereo unspecified),inactive: -3.5%
6,COc1cc(C(=O)NC2CCN(Cc3ccccc3)CC2)cc(Cl)c1OC(C)C,inactive: 4.58%
7,CCCc1cc(=O)[nH]c(SCC(=O)NC2CCCCCCC2)n1,inactive: -2.16%
8,COc1cc2c(cc1OC)C(C)N(C(=O)C(NC(=O)c1ccccc1)C(C)C)CC2 (stereo unspecified),inactive: 16.3%
9,Cc1ccc(S(=O)(=O)n2c([N+](=O)[O-])cnc2C)c(C)c1C,inactive: 2.88%
10,CCOc1c(O)ccc(C2NC(=O)NC(C)=C2C(=O)OC)c1[N+](=O)[O-] (stereo unspecified),inactive: 1.99%
11,N#Cc1ccc(NC(=O)CCc2nc3ccccc3s2)cc1,inactive: 23.7%
12,CCOc1ccccc1NC(=O)NCCC1=CCCCC1,inactive: -6.38%
13,CCC(C)N(C(=O)c1csnn1)C(C(=O)NC1CCCC1)c1ccccc1F (stereo unspecified),inactive: -7.47%
14,CCOC(=O)C1=C(O)C(=O)N(c2ccc(S(N)(=O)=O)cc2)C1c1ccc(Br)cc1 (stereo unspecified),inactive: 0.636%
15,COC(C(=O)Nc1ccnn1C1CCN(Cc2nccs2)CC1)c1ccccc1 (stereo unspecified),inactive: -2.03%
16,CC(=O)N/N=C\c1ccccc1OC/C=C/c1ccccc1,inactive: -15.8%
17,COc1c(Br)cc(Br)cc1/C=C1/C(=O)N=C(N)N1C,inactive: 2.96%
18,CS(=O)(=O)N1CCN(c2ccc(NC(=O)c3ccc([N+](=O)[O-])o3)cc2)CC1,inactive: -2.08%
19,O=C(/C=C/c1cccs1)c1ccc([N+](=O)[O-])cc1,inactive: 14.6%
20,O=C(NCCCN1CCOCC1)c1ccccc1,inactive: -1.84%
21,CC(=O)C1=C(O)C(=O)N(Cc2cccnc2)C1c1ccc(C(C)C)cc1 (stereo unspecified),inactive: -3.02%
22,CCOC(=O)C1=NNC2(CC(=O)N(c3cc(C)cc(C)c3)C2=O)C1 (stereo unspecified),inactive: -9.95%
23,COc1ccc(N2Cc3ccccc3C2=NC(=O)c2cccc([N+](=O)[O-])c2)cc1,inactive: 15.6%

row,SMILES,growth rescue (activation)
1,O=C(NC(Cc1ccccc1)C(=O)N1CCc2ccccc2C1)c1ccccc1 (stereo unspecified),inactive: -10.3%
2,O=C(NC1=NCCS1)C1COc2ccccc2O1 (stereo unspecified),inactive: 22.1%
3,Cc1occc1C(=O)Nc1ccccc1C(=O)O,inactive: -18.2%
4,CCOc1ccc(NCc2cccn2-c2nnc(N3CCC(C(=O)NCc4ccc(C)cc4)CC3)s2)cc1,inactive: -2.7%
5,CC(C)(C)c1ccc(C(CC(=O)O)NC(=O)CCCc2ccccc2)cc1 (stereo unspecified),inactive: 13.8%
6,CC(Cl)C(=O)NC(=O)NC12CC3CC(CC(C3)C1)C2 (stereo unspecified),inactive: 10.6%
7,O=C(Nc1ccc(Cl)c(Cl)c1)C1CCN(C(=O)c2ccco2)CC1,inactive: 13.9%
8,Nn1c(Cc2cccc3ccccc23)nnc1SCc1ccccc1Cl,inactive: 22.6%
9,O=C(/C=C/c1cccc([N+](=O)[O-])c1)NCc1ccc2c(c1)OCO2,inactive: 13%
10,O=c1c2c(-c3ccccc3)csc2ncn1/N=C/c1ccc(O)c([N+](=O)[O-])c1,inactive: -7.58%
11,COc1ccc(OC)c(C(=O)/C=C/c2cccnc2)c1,inactive: -10.4%
12,CCC(C)NC(=O)COC(=O)c1cccnc1Nc1ccccc1F (stereo unspecified),inactive: 4.85%
13,O=C(N/N=C/C(Cl)=C\c1ccccc1)c1cccs1,inactive: 14.5%
14,CN1CCc2nc3ccc(Cl)cc3c(-c3ccccc3Cl)c2C1,inactive: 12%
15,CC(=O)Nc1cccc(Oc2ncnc3scc(-c4ccccc4)c23)c1,inactive: 18.3%
16,COc1ccccc1NC(=O)CSc1nc2sc(C)c(C)c2c(=O)n1C,inactive: -14.6%
17,O=c1c2c([N+](=O)[O-])cc([N+](=O)[O-])cc2sn1Cc1ccccc1,inactive: -93.3%
18,O=C(CO/N=C/c1ccc(OC(F)F)cc1)NC1CCCCC1,inactive: 10.5%
19,COc1ccc(CCC(=O)Nc2ccccc2C(F)(F)F)cc1,inactive: 28.4%
20,CCCn1nc(NC(=O)c2cccs2)c2cc3cc(OC)ccc3nc21,inactive: 40.7%
21,COc1cc2c(cc1OC)CN(CC(=O)Nc1ccc(F)cc1)C(C(=O)O)C2 (stereo unspecified),inactive: 2.3%
22,COc1cccc(CNC(=O)C2CCN(S(=O)(=O)c3ccc(-n4cnnn4)cc3)CC2)c1,inactive: 8.23%
23,Cn1ncc(Cl)c1C(=O)N1CCN(c2ccc(F)cc2)CC1,inactive: 19.2%

row,SMILES,growth rescue (activation)
1,CCCCN(CC)CCCNC(=O)C1CCN(c2nc3ccc(CC)cc3s2)CC1,inactive: 7.61%
2,COc1ccc(CCN(C)C(=O)c2cncc(Br)c2)cc1OC,inactive: -13.1%
3,COc1ccc(CCC(=O)NCc2nc3cccnc3n2Cc2ccc(C)cc2)cc1,inactive: 14.1%
4,CN=C1S/C(=C\c2ccc(N3CCCC3)c(F)c2)C(=O)N1C,inactive: 12.6%
5,O=S(=O)(c1ccc2c(c1)OCCO2)N1CCN(Cc2ccccc2)CC1,inactive: 17.5%
6,Cc1cccc(N2CCC(N=CN(C)C)=N2)c1,inactive: 2.29%
7,COC(=O)N/N=C(\C)c1ccc(OC(F)F)cc1OC(F)F,inactive: 4.78%
8,Cc1ccccc1N1CCN(S(=O)(=O)N(C)C)CC1,inactive: 8.07%
9,CCCc1nn(C)c(C(N)=O)c1[N+](=O)[O-],inactive: 3.01%
10,CC1(C)CC(NC(=O)CCc2ccccc2)CC(C)(C)N1,inactive: -24.6%
11,O=C(CN1CCC(NC(=O)C2CCCCC2)CC1)Nc1ccccc1,inactive: 4.7%
12,Cn1cc(CN2CCCC(CO)(Cc3ccccc3)C2)cn1 (stereo unspecified),inactive: 2.48%
13,COC(=O)C1CCN(c2ccc([N+](=O)[O-])cc2[N+](=O)[O-])CC1,inactive: 14.6%
14,CC(=O)N1CCN(S(=O)(=O)c2cccc(C(=O)OCC(=O)NC(=O)c3cccn3C)c2)CC1,inactive: -13.9%
15,Cc1cccn2c(=O)c(/C=C(\C#N)C(=O)NC3CCS(=O)(=O)C3)c(Oc3ccccc3Cl)nc12 (stereo unspecified),inactive: -19.7%
16,COc1ccc(N2C(=O)CC(C#N)=C2N)cc1,inactive: 11.9%
17,CCOC(=O)C1=C(C(F)(F)F)Nc2ncnn2C1c1ccc(OC)cc1OC (stereo unspecified),inactive: 5.58%
18,COc1cc(/C=C2/SC(=S)N(Cc3ccccc3)C2=O)cc(OC)c1O,inactive: -29.5%
19,COC(=O)c1ccc(COC(=O)c2ccc(CO)cc2)o1,inactive: 27.4%
20,COc1ccc(CN(CC2CCC(C(=O)O)CC2)C(=S)Nc2ccccc2C)cc1 (stereo unspecified),inactive: 0.308%
21,COc1ccc(OC)c(NC(=O)NCCc2cccc(Cl)c2)c1,inactive: 8.21%
22,CSc1nsc(SC)c1C(=O)N1CCN(S(=O)(=O)c2ccc(C)cc2)C1C (stereo unspecified),inactive: -11.4%
23,COC(=O)/C(C#N)=C/c1c[nH]c2ccccc12,inactive: 17.1%

row,SMILES,growth rescue (activation)
1,O=c1cc(NS(=O)(=O)c2ccccc2)nc(SCc2c(Cl)cccc2Cl)[nH]1,inactive: 9.29%
2,CC1(C(=O)NS(=O)(=O)c2ccc(Cl)s2)CCN1C(=O)Cc1ccc(Cl)cc1Cl (stereo unspecified),inactive: 16.7%
3,Cc1ccc(-c2csc(NC(=O)CN3CCOCC3)n2)cc1C,inactive: 5.1%
4,O=C(Nc1ccccc1)c1ccc(CN2CCC(Cc3ccccc3)CC2)cc1,inactive: 8.46%
5,CC(Oc1ccccc1)C(=O)Nc1ccc(NC(=O)c2ccccc2)cc1 (stereo unspecified),inactive: 1.17%
6,COCc1nnc(NC(=O)c2cc(OC)c(OC)cc2[N+](=O)[O-])s1,inactive: 15.4%
7,O=C(COC(=O)c1ccc(N2CCCC2=O)cc1)c1ccccc1,inactive: 2.93%
8,Cc1nc2cc(N3CCN(C)CC3)c(NC(=O)Cc3ccccc3)cc2c(=O)n1Cc1ccccc1,inactive: 20.4%
9,O=S(=O)(NCC1CCCO1)c1ccc(Cl)nc1 (stereo unspecified),inactive: 9.12%
10,O=C(O)C1CCCN(C(=O)/C=C/c2ccccc2)CC1 (stereo unspecified),inactive: 16.6%
11,O=C(Oc1ccc(Br)cc1C(=S)N1CCOCC1)c1cccc([N+](=O)[O-])c1,inactive: 14.2%
12,O=C(C[n+]1cc(-c2ccccc2)n2c1CCC2)OCc1ccccc1,inactive: 5.55%
13,COCCNC(=O)CN(Cc1ccc(F)cc1)C(=O)CCC(=O)Nc1nccs1,inactive: 6.71%
14,Cc1ccc(O)c(NC(=S)NC(=O)C(C)C)c1,inactive: 9.9%
15,Cc1ccc(C2(c3noc(CN(C)CC4COCCO4)n3)CCCC2)cc1 (stereo unspecified),inactive: 3.96%
16,C=CCN1CC(O)=C(c2nc3ccccc3[nH]2)C1=N,inactive: 1.96%
17,Cc1cc(C(=O)Nc2ccon2)c(C)o1,inactive: 22.4%
18,CN(C)Cc1c(O)c(Cl)cc2c3c(c(=O)oc12)CCCC3,inactive: -3.42%
19,CCn1c(=O)c2c3c(sc2n2c(SCc4ccc(F)cc4)nnc12)CCCC3,inactive: 28.6%
20,COc1ccc(Cl)cc1NC(=S)NCCO,inactive: 8.79%
21,O=c1[nH]c(C2CCN(S(=O)(=O)c3ccc(S(=O)(=O)NC4CC4)cc3)CC2)nc2c1nnn2Cc1ccccc1,inactive: 4.53%
22,Cc1ccc(N(CC(=O)NC2CCCC2)C(=O)CNC(=O)c2cccs2)c(C)c1,inactive: 1.13%
23,Cc1ccc(S(=O)(=O)N/N=C/c2cccc3c2OCCO3)cc1,inactive: 12.6%

row,SMILES,growth rescue (activation)
1,Cc1cccc(C)c1NC(=O)CNCC(=O)Nc1c(C)cccc1C,inactive: 11.5%
2,O=c1[nH]c(CN2CCN(c3ncccn3)CC2)nc2c(Br)cc(Br)cc12,inactive: 0.179%
3,CCCCN(CCCC)CC(O)COc1ccc(Br)cc1 (stereo unspecified),inactive: -6.49%
4,CC(=O)Nc1ccc(S(=O)(=O)Nc2cccn(Cc3ccc(C)cc3)c2=O)cc1,inactive: 2.1%
5,COC(=O)c1ccc(N2CCN(C)CC2)c(NC(=O)c2sc3ccccc3c2Cl)c1,inactive: -6.26%
6,Cc1nc2sc(-c3ccccc3)cc2c(=O)n1-n1cccc1,inactive: -23.2%
7,CN(C)c1ccnc(Nc2ccccc2)c1C#N,inactive: -2.6%
8,Cc1cc(C)c2nncn2n1,inactive: 1.96%
9,COc1ccc(S(=O)(=O)N2CCN(CC(=O)Nc3c(C)n[nH]c3C)CC2)cc1OC,inactive: -5.6%
10,Nc1c2c(nn1-c1ccc(C(=O)O)cc1)CNC2,inactive: 5.92%
11,CSc1ccc(NC(=O)N2CCC(C(=O)c3ccc(F)cc3)CC2)cc1,inactive: -0.559%
12,Cc1ccc2c(c1)N(CC(=O)N1CCCCC1C)C(=O)CO2 (stereo unspecified),inactive: 6.9%
13,Cc1cc(=S)cc(C)n1CCO,inactive: 11.7%
14,CCOP(=O)(OCC)C(O)c1cc(OC)c(OC)c(OC)c1 (stereo unspecified),inactive: -2.89%
15,CC1CCCC(C)N1c1ccc(S(=O)(=O)N2CCOCC2)cc1Cl (stereo unspecified),inactive: 10.9%
16,Cc1occc1-c1nnc(SCC(=O)NCc2cccs2)n1CC1CCCO1 (stereo unspecified),inactive: 2.01%
17,CCOc1ccc(CCNC(=O)c2[nH]c(C)c(C(C)=O)c2CC)cc1OCC,inactive: 10.4%
18,Cc1ccc(CN(C(=O)COc2ccc(Cl)cc2C)C2CCS(=O)(=O)C2)o1 (stereo unspecified),inactive: 12%
19,COc1ccc(CCN2C(=NC(=O)C(C)C)SC3CS(=O)(=O)CC32)cc1 (stereo unspecified),inactive: 9.5%
